# Some of the results follow.
# B1: NPA (Narcissus pseudonarcissus), C0HM45 (protein)
# chain: DNILYSGETLSPGEFLNNGRYVFIMQEDCNLVLYDVDKPIWATNTGGLDRRCHLSMQSDGNLVVYSPRNNPIWASNTGGENGNYVCVLQKDRNVVIYGTARWATGTNIH
# Key:
# Experiment in all cases: glycan array binding signal (z-score within array); higher = stronger binding
# Conditions in all cases: glycan notation: IUPAC condensed, linker removed
# [1] = target: Fuc(a1-2)Gal(b1-4)GlcNAc(b1-3)Gal(b1-4)GlcNAc(b1-2)Man(a1-3)[Fuc(a1-2)Gal(b1-4)GlcNAc(b1-3)Gal(b1-4)GlcNAc(b1-2)Man(a1-6)]Man(b1-4)GlcNAc(b1-4)GlcNAc
# Outline: (§1)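 Arrays were curated from the Consortium for Functional Glycomics database, 3228 in total, and kept only where the protein sequence was available. Binding is expressed as a within-array Z-score. This score was averaged across arrays of the same protein sequence at different concentrations or buffers and across linkers, and negative values can be read as non-binding.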
# [2] = target: Fuc(a1-2)Gal(b1-4)GlcNAc(b1-3)Gal(b1-4)GlcNAc(b1-3)Gal(b1-4)GlcNAc
# Outline: as §1
# [3] = target: Fuc(a1-2)Gal(b1-4)GlcNAc(b1-3)GalNAc
# Outline: as §1
# [4] = target: Fuc(a1-2)Gal(b1-4)GlcNAc(b1-3)[Fuc(a1-2)Gal(b1-4)GlcNAc(b1-6)]GalNAc
# Outline: as §1
# [5] = target: Fuc(a1-2)Gal(b1-4)GlcNAc(b1-3)[Fuc(a1-3)[Gal(b1-4)]GlcNAc(b1-6)]Gal(b1-4)Glc
# Outline: as §1
# [6] = target: Fuc(a1-2)Gal(b1-4)GlcNAc(b1-6)GalNAc
# Outline: as §1
# [7] = target: Fuc(a1-2)Gal(b1-4)GlcNAc6S
# Outline: as §1
# [8] = target: Fuc(a1-2)Gal(b1-4)[Fuc(a1-3)]GlcNAc
# Outline: as §1
# [9] = target: Fuc(a1-2)Gal(b1-4)[Fuc(a1-3)]GlcNAc(b1-2)Man(a1-3)[Fuc(a1-2)Gal(b1-4)[Fuc(a1-3)]GlcNAc(b1-2)Man(a1-6)]Man(b1-4)GlcNAc(b1-4)[Fuc(a1-6)]GlcNAc
# Outline: as §1
# [10] = target: Fuc(a1-2)Gal(b1-4)[Fuc(a1-3)]GlcNAc(b1-2)[Fuc(a1-2)Gal(b1-4)[Fuc(a1-3)]GlcNAc(b1-4)]Man(a1-3)[Fuc(a1-2)Gal(b1-4)[Fuc(a1-3)]GlcNAc(b1-2)Man(a1-6)]Man(b1-4)GlcNAc(b1-4)GlcNAc
# Outline: as §1
# [11] = target: Fuc(a1-2)Gal(b1-4)[Fuc(a1-3)]GlcNAc(b1-3)Gal(b1-4)[Fuc(a1-3)]GlcNAc
# Outline: as §1
# [12] = target: Fuc(a1-2)Gal(b1-4)[Fuc(a1-3)]GlcNAc(b1-3)Gal(b1-4)[Fuc(a1-3)]GlcNAc(b1-3)Gal(b1-4)[Fuc(a1-3)]GlcNAc
# Outline: as §1
# [13] = target: Fuc(a1-2)Gal(b1-4)[Fuc(a1-3)]GlcNAc(b1-3)GalNAc
# Outline: as §1
# [14] = target: Fuc(a1-2)Gal(b1-4)[Fuc(a1-3)]GlcNAc(b1-3)[Neu5Ac(a2-6)Gal(b1-4)GlcNAc(b1-6)]Gal(b1-4)Glc
# Outline: as §1
# [15] = target: Fuc(a1-2)Gal3S(b1-4)GlcNAc
# Outline: as §1
# [16] = target: Fuc(a1-2)Gal6S(b1-3)GlcNAc
# Outline: as §1
# [17] = target: Fuc(a1-2)Gal6S(b1-3)GlcNAc6S
# Outline: as §1
# Fuc(a1-2)Gal6S(b1-4)Glc = target: Fuc(a1-2)Gal6S(b1-4)Glc
# Outline: as §1
# [18] = target: Fuc(a1-2)Gal6S(b1-4)Glc6S
# Outline: as §1
# Fuc(a1-2)GlcNAc = target: Fuc(a1-2)GlcNAc
# Outline: as §1
# Fuc(a1-2)[Gal(a1-3)]Gal = target: Fuc(a1-2)[Gal(a1-3)]Gal
# Outline: as §1
# [19] = target: Fuc(a1-2)[Gal(a1-3)]Gal(b1-3)GalNAc
# Outline: as §1
# [20] = target: Fuc(a1-2)[Gal(a1-3)]Gal(b1-3)GalNAc(b1-3)Gal(a1-4)Gal(b1-4)Glc
# Outline: as §1
# [21] = target: Fuc(a1-2)[Gal(a1-3)]Gal(b1-3)GlcNAc
# Outline: as §1
# [22] = target: Fuc(a1-2)[Gal(a1-3)]Gal(b1-3)GlcNAc(b1-2)Man(a1-3)[Fuc(a1-2)[Gal(a1-3)]Gal(b1-3)GlcNAc(b1-2)Man(a1-6)]Man(b1-4)GlcNAc(b1-4)GlcNAc
# Outline: as §1
# [23] = target: Fuc(a1-2)[Gal(a1-3)]Gal(b1-3)GlcNAc(b1-2)Man(a1-3)[Fuc(a1-2)[Gal(a1-3)]Gal(b1-3)GlcNAc(b1-2)Man(a1-6)]Man(b1-4)GlcNAc(b1-4)[Fuc(a1-6)]GlcNAc
# Outline: as §1
# [24] = target: Fuc(a1-2)[Gal(a1-3)]Gal(b1-3)GlcNAc(b1-3)GalNAc
# Outline: as §1
# [25] = target: Fuc(a1-2)[Gal(a1-3)]Gal(b1-3)GlcNAc(b1-6)GalNAc
# Outline: as §1
# [26] = target: Fuc(a1-2)[Gal(a1-3)]Gal(b1-4)Glc
# Outline: as §1
# [27] = target: Fuc(a1-2)[Gal(a1-3)]Gal(b1-4)GlcNAc
# Outline: as §1
# [28] = target: Fuc(a1-2)[Gal(a1-3)]Gal(b1-4)GlcNAc(b1-2)Man
# Outline: as §1
# [29] = target: Fuc(a1-2)[Gal(a1-3)]Gal(b1-4)GlcNAc(b1-2)Man(a1-3)[Fuc(a1-2)[Gal(a1-3)]Gal(b1-4)GlcNAc(b1-2)Man(a1-6)]Man(b1-4)GlcNAc(b1-4)GlcNAc
# Outline: as §1
# [30] = target: Fuc(a1-2)[Gal(a1-3)]Gal(b1-4)GlcNAc(b1-2)Man(a1-3)[Fuc(a1-2)[Gal(a1-3)]Gal(b1-4)GlcNAc(b1-2)Man(a1-6)]Man(b1-4)GlcNAc(b1-4)[Fuc(a1-6)]GlcNAc
# Outline: as §1
# [31] = target: Fuc(a1-2)[Gal(a1-3)]Gal(b1-4)GlcNAc(b1-3)GalNAc
# Outline: as §1
# [32] = target: Fuc(a1-2)[Gal(a1-3)]Gal(b1-4)GlcNAc(b1-6)GalNAc
# Outline: as §1
# [33] = target: Fuc(a1-2)[Gal(a1-3)]Gal(b1-4)[Fuc(a1-3)]Glc
# Outline: as §1
# [34] = target: Fuc(a1-2)[Gal(a1-3)]Gal(b1-4)[Fuc(a1-3)]GlcNAc
# Outline: as §1
# [35] = target: Fuc(a1-2)[Gal(a1-3)]Gal(b1-4)[Fuc(a1-3)]GlcNAc(b1-3)GalNAc
# Outline: as §1
# [36] = target: Fuc(a1-2)[Gal(a1-4)]Gal(b1-4)GlcNAc
# Outline: as §1
# [37] = target: Fuc(a1-2)[GalNAc(a1-3)]Gal
# Outline: as §1
# [38] = target: Fuc(a1-2)[GalNAc(a1-3)]Gal(b1-3)GalNAc(a1-3)[Fuc(a1-2)]Gal(b1-4)GlcNAc
# Outline: as §1
# [39] = target: Fuc(a1-2)[GalNAc(a1-3)]Gal(b1-3)GalNAc(b1-3)Gal(a1-4)Gal(b1-4)Glc
# Outline: as §1
# [40] = target: Fuc(a1-2)[GalNAc(a1-3)]Gal(b1-3)GlcNAc
# Outline: as §1
# [41] = target: Fuc(a1-2)[GalNAc(a1-3)]Gal(b1-3)GlcNAc(b1-2)Man(a1-3)[Fuc(a1-2)[GalNAc(a1-3)]Gal(b1-3)GlcNAc(b1-2)Man(a1-6)]Man(b1-4)GlcNAc(b1-4)GlcNAc
# Outline: as §1
# [42] = target: Fuc(a1-2)[GalNAc(a1-3)]Gal(b1-3)GlcNAc(b1-2)Man(a1-3)[Fuc(a1-2)[GalNAc(a1-3)]Gal(b1-3)GlcNAc(b1-2)Man(a1-6)]Man(b1-4)GlcNAc(b1-4)[Fuc(a1-6)]GlcNAc
# Outline: as §1
binder,measurement,setting,value
B1,glycan array binding signal (z-score),[1],-0.103
same,glycan array binding signal (z-score),[2],-0.157
same,glycan array binding signal (z-score),[3],-0.138
same,glycan array binding signal (z-score),[4],-0.137
same,glycan array binding signal (z-score),[5],-0.15
same,glycan array binding signal (z-score),[6],-0.111
same,glycan array binding signal (z-score),[7],-0.149
same,glycan array binding signal (z-score),[8],-0.15
same,glycan array binding signal (z-score),[9],-0.037
same,glycan array binding signal (z-score),[10],-0.063
same,glycan array binding signal (z-score),[11],-0.154
same,glycan array binding signal (z-score),[12],-0.143
same,glycan array binding signal (z-score),[13],-0.09
same,glycan array binding signal (z-score),[14],-0.144
same,glycan array binding signal (z-score),[15],-0.138
same,glycan array binding signal (z-score),[16],-0.084
same,glycan array binding signal (z-score),[17],-0.121
same,glycan array binding signal (z-score),Fuc(a1-2)Gal6S(b1-4)Glc,-0.145
same,glycan array binding signal (z-score),[18],-0.135
same,glycan array binding signal (z-score),Fuc(a1-2)GlcNAc,-0.182
same,glycan array binding signal (z-score),Fuc(a1-2)[Gal(a1-3)]Gal,-0.139
same,glycan array binding signal (z-score),[19],-0.146
same,glycan array binding signal (z-score),[20],-0.152
same,glycan array binding signal (z-score),[21],-0.132
same,glycan array binding signal (z-score),[22],0.04
same,glycan array binding signal (z-score),[23],0.544
same,glycan array binding signal (z-score),[24],-0.143
same,glycan array binding signal (z-score),[25],-0.134
same,glycan array binding signal (z-score),[26],-0.156
same,glycan array binding signal (z-score),[27],-0.152
same,glycan array binding signal (z-score),[28],-0.132
same,glycan array binding signal (z-score),[29],-0.031
same,glycan array binding signal (z-score),[30],0.225
same,glycan array binding signal (z-score),[31],-0.149
same,glycan array binding signal (z-score),[32],-0.129
same,glycan array binding signal (z-score),[33],-0.141
same,glycan array binding signal (z-score),[34],-0.143
same,glycan array binding signal (z-score),[35],-0.146
same,glycan array binding signal (z-score),[36],-0.155
same,glycan array binding signal (z-score),[37],-0.147
same,glycan array binding signal (z-score),[38],-0.15
same,glycan array binding signal (z-score),[39],-0.157
same,glycan array binding signal (z-score),[40],-0.153
same,glycan array binding signal (z-score),[41],-0.098
same,glycan array binding signal (z-score),[42],0.281

# Source: the supplement of paper PMC8728848
